# PubChem BioAssay AID624296 (National Center for Advancing Translational Sciences (NCATS), 2012)
# Screen size: about 350,000 compounds; about 9,900 (2.8%) were called active. Inconclusive results, whose numbers are uncertain, are shown with a selection of clear calls. Calls come from the whole dose curve; as a rule, active = well fitted activation curve with a large enough effect; inconclusive = small, poorly fitted or top-dose-only effect; inactive = no such curve, though single readings can be large or run the other way. Potencies of inconclusive entries are left out as doubtful fits.
# Test: A quantitative high throughput screen for small molecules that induce DNA re-replication in MCF 10a normal breast cells. For activity, positive = re-replication: % of control where 0% means no effect. Note: nearly all actives have a fitted effect of over 50% in size.
# Details: MCF 10A DNA re-replication, Hoechst nuclear intensity, 48 h; activity, positive = re-replication: at 46.1 µM (top of the series)
# Potency is the fitted concentration of half-maximal effect; tags give direction and shape of the fitted curve.
SMILES,Potency,"activity, positive = re-replication"
O=[N+]([O-])c1cc(Cl)ccc1N1CCN(c2cccc(C(F)(F)F)c2)CC1,"inconclusive [activator, partial curve, poor fit]",–
CCc1sc2nc(SCC(=O)Nc3cc(C)on3)n(-c3cccc(OC)c3)c(=O)c2c1C,"inconclusive [activator, single point]",–
Cc1cc(C)nc(N(C#N)CCOc2ccc(Cl)cc2)n1,"inconclusive [activator, full curve, poor fit]",–
CN(C)C(=O)CCc1ccc2c3c([nH]c2c1)[C@]1(CCC2CCCC2)[C@@H](C(=O)N2CCOCC2)C[C@H](CC(=O)NCc2cccc(C(F)(F)F)c2)C(=O)N1CC3,"inconclusive [activator, partial curve, poor fit]",–
CCOC(=O)/C=C/C(=O)OCC(=O)Nc1ccc(OC)c(Cl)c1,"inconclusive [activator, single point]",–
O=C(c1cnc2ccc(Cl)cc2c1Cl)N1CCOCC1,–,inactive: -3.56%
CC1(C)CC(=O)C(C=Nc2ccc(N)cc2)=C(O)C1,active: 0.651 µM,–
Cc1ccc(-c2nn(CC(=O)N3CCOCC3)c(=O)c3ccccc23)cc1S(=O)(=O)N(C)C,–,inactive: -1.81%
CC1CCCN(C(=O)C(=O)Nc2ccc3nc4n(c(=O)c3c2)CCCCC4)C1 (configuration not stated),"inconclusive [activator, partial curve, poor fit]",–
Cc1ccc(Sc2ncnc3onc(C)c23)cc1,"inconclusive [activator, single point]",–
Cc1cccc(NC(=O)c2cc(S(=O)(=O)N3CCCC3)cn2C)c1,–,inactive: 7%
O=C1N(c2ccccc2C(F)(F)F)O[C@]1(c1ccccc1)C1CCCCC1,active: 18.4 µM,–
CC1CN(c2c3c(nc4ncnn24)CCCC3)CC(C)O1 (configuration not stated),"inconclusive [activator, single point]",–
O=C(Nc1cccc(S(=O)(=O)N2CCCCC2)c1)C1CC1,–,inactive: -5.15%
O=C(COc1ccccc1)N[C@@H]1c2ccccc2CC[C@@H]1OCc1ccccc1,"inconclusive [activator, single point]",–
CN(CC(O)COC(c1ccccc1)c1ccccc1)C1CCCCC1 (configuration not stated),"inconclusive [activator, single point]",–
COc1ccc(-c2sc3cc(OC)c(OC)cc3c2-c2ccc(O)cc2)cc1,"inconclusive [activator, single point]",–
C=CCNC(=O)c1onc(CSc2ccc(C(C)C)cc2)c1C(=O)O,"inconclusive [activator, single point]",–
COc1ccc(CNC(=O)COC(=O)CC2CC3CCC2C3)cc1OC (configuration not stated),–,inactive: 0.86%
c1ccc(-n2ncc3c(NCc4ccco4)ncnc32)cc1,active: 12.6 µM,–
O=[N+]([O-])c1ccccc1/C=N/N1CCN(c2ccccn2)CC1,–,inactive: 28.3%
CCCC(=O)OCC(=O)Nc1ccc(N=Nc2ccccc2)cc1,"inconclusive [activator, partial curve, poor fit]",–
CCOC(=O)c1c(NC(=O)Cc2ccccc2)sc2c1CC(C)(C)NC2(C)C,–,inactive: 6.52%

SMILES,Potency,"activity, positive = re-replication"
COc1ccccc1CCNC(=O)c1ccc(Br)s1,–,inactive: 5.68%
N#Cc1ccc(-c2csc(NC3=NCCCCC3)n2)cc1,"inconclusive [activator, full curve, poor fit]",–
CN1CCN(c2ccc(NC(=O)CSc3nnnn3-c3ccccc3Cl)cc2)CC1,"inconclusive [activator, full curve]",–
S=C(NCCc1ccccn1)Nc1ccccc1,–,inactive: 1.84% [at 9.22 µM]
CCOC(=O)c1c(NC(=S)Nc2ccccc2)sc2c1CCN(CC)C2,–,inactive: -1.09%
Cc1cc(NS(=O)(=O)c2ccc(NC(=O)COc3ccc(Cl)cc3Cl)cc2)no1,"inconclusive [activator, partial curve, poor fit]",–
COc1ccc2c(c1)NC(c1ccc(N(C)C)cc1)c1cccn1-2 (configuration not stated),"inconclusive [activator, single point]",–
C=CCOc1c(Br)cc(CNc2nccs2)cc1OC,–,inactive: 0.595%
CCOC(=O)c1c(-c2ccccc2)csc1NC(=O)/C(C#N)=C\c1ccc(O)c(OC)c1,active: 2.31 µM,–
COc1cc(/C=N/NS(=O)(=O)c2ccc(C)cc2)ccc1OCc1cccc(C(=O)O)c1,"inconclusive [activator, single point]",–
CC(=O)C(Sc1ccc2nnc(-c3cccnc3)n2n1)C(C)=O,"inconclusive [activator, single point]",–
CCc1nnc(NC(=O)CSc2nc3cccnc3n2Cc2ccccc2)s1,"inconclusive [activator, single point]",–
COc1ccc(Cc2nnc(NC(=O)c3cc(OC)c(OC)c(OC)c3)s2)cc1,"inconclusive [activator, full curve, poor fit]",–
COc1ccc([C@@H]2C=C(C(=O)O)O[C@H](OCCCCO)C2)cc1,"inconclusive [activator, single point]",–
Cc1n[nH]c(C)c1S(=O)(=O)N1CCOCC1,"inconclusive [activator, partial curve, poor fit]",–
CCOC(=O)COc1cccc2c(=O)n(CC(=O)NCc3ccc(F)cc3)ccc12,"inconclusive [activator, full curve, poor fit]",–
C/C(N)=C(/C#N)C(=O)CSc1nc2ccccc2c(=O)n1Cc1ccc(C)cc1,"inconclusive [activator, single point]",–
c1nc(NCc2ccc3c(c2)OCO3)c2cc(-c3ccoc3)ccc2n1,"inconclusive [activator, full curve, poor fit]",–
CCC(=O)Nc1ccc2nc(C3CC3)n(Cc3ccc(C(C)(C)C)cc3)c(=O)c2c1,"inconclusive [activator, partial curve, poor fit]",–
O=C(Nc1ccc(Br)cc1F)c1sccc1-n1cccc1,–,inactive: -8.16%
O=C(NC(Nc1ncc(S(=O)(=O)c2ccc([N+](=O)[O-])cc2)s1)(C(F)(F)F)C(F)(F)F)c1ccc(Cl)cc1,active: 9.2 µM,–
O=S(=O)(NC1CCCCC1)c1ccc(F)c2ccccc12,"inconclusive [activator, single point]",–
Cc1ccc(NC(=O)CSC2=C(C#N)C(c3ccco3)C3=C(CCCC3=O)N2)cc1 (configuration not stated),"inconclusive [activator, single point]",–

SMILES,Potency,"activity, positive = re-replication"
CCOc1ccc(Oc2c(/C=N/NC(=O)C3CC3)c(C)nn2-c2ccccc2)cc1,"inconclusive [activator, partial curve, poor fit]",–
CCCCN1C(=O)C(=O)N(CC(=O)N2N=C3/C(=C/c4ccco4)CCCC3C2c2ccco2)C1=O (configuration not stated),"inconclusive [activator, partial curve, poor fit]",–
CCC(C(=O)NCc1ccco1)N(C(=O)CNS(=O)(=O)c1ccccc1)c1ccc(OC)cc1 (configuration not stated),"inconclusive [activator, partial curve, poor fit]",–
O=C(N/N=C/c1cccc(Br)c1)c1ccc(N2CCCC2=O)cc1,"inconclusive [activator, single point]",–
N#C/C(=C\c1c(N2CCOCC2)nc2ccccn2c1=O)C(=O)NC1CCS(=O)(=O)C1 (configuration not stated),active: 5.8 µM,–
Cc1oc(-c2ccccc2Cl)nc1CSCC(=O)N1CCCC1,–,inactive: 13.7%
COc1ccc(C(CNC(=O)c2ccco2)N2CCCC2)cc1 (configuration not stated),"inconclusive [activator, partial curve, poor fit]",–
C=CCn1c(=O)c(C(=O)Nc2ccc(C)cn2)c(O)c2ccccc21,–,inactive: -3.44%
COc1ccc(-c2coc3cc(OC(C)=O)c(OC)cc3c2=O)cc1,–,inactive: -36.8%
Cc1ccc(S(=O)(=O)Cc2ccccc2Cl)cc1,"inconclusive [activator, single point]",–
Cc1csc2ncc(C(=O)NCCC(c3ccccc3)c3ccccc3)c(=O)n12,"inconclusive [activator, single point]",–
CCOC(=O)c1cnc2c(cnn2C)c1NCCC#N,"inconclusive [activator, single point]",–
Cc1ccc(-n2c(C)cc(C3=NNC(=NC4CC4)SC3)c2C)cc1C,"inconclusive [activator, single point]",–
COc1ccc(C(=O)NC2CCCCCCC2)cc1OC,–,inactive: 3.03%
O=C(C1CCN(Cc2ccc(F)cc2)CC1)N1CCN(C/C=C/c2ccccc2)CC1,"inconclusive [activator, partial curve, poor fit]",–
CC[C@@]1(c2ccccc2)C(=O)N(C(=O)OC)N1C(=O)OC,"inconclusive [activator, single point]",–
Cc1ccc(NC(=O)c2ccccc2[N+](=O)[O-])nc1,"inconclusive [activator, single point]",–
Oc1ccc(/C=N/NC(=S)NC2CC3CCC2C3)cc1 (configuration not stated),"inconclusive [activator, partial curve, poor fit]",–
COc1cc(CNc2ccc3[nH]c(=O)[nH]c3c2)cc(Cl)c1OCC(=O)NC(C)(C)C,"inconclusive [activator, partial curve, poor fit]",–
C[N+](C)(C)CCOC(=O)CCC(=O)OCC[N+](C)(C)C,"inconclusive [activator, single point]",–
O=C(O)CCCN1C(=O)/C(=C/c2cn(-c3ccccc3)nc2-c2cccs2)SC1=S,"inconclusive [activator, partial curve, poor fit]",–
